Results: article PMC5491523
Results are given in words; binding and its absence hold for the method and conditions named. Binding seen in cells or lysates may run through a third protein. Some binding calls cover weakened binding; strength is not graded here. For some of these results: Sequences can lack the tags named with a protein.

By UniProt entry, the sequences of proteins in these tests, tags left out. Where a name states a change or a piece, a line headed by the entry shows the natural chain unless it says otherwise.
UniProt Q8TDI8: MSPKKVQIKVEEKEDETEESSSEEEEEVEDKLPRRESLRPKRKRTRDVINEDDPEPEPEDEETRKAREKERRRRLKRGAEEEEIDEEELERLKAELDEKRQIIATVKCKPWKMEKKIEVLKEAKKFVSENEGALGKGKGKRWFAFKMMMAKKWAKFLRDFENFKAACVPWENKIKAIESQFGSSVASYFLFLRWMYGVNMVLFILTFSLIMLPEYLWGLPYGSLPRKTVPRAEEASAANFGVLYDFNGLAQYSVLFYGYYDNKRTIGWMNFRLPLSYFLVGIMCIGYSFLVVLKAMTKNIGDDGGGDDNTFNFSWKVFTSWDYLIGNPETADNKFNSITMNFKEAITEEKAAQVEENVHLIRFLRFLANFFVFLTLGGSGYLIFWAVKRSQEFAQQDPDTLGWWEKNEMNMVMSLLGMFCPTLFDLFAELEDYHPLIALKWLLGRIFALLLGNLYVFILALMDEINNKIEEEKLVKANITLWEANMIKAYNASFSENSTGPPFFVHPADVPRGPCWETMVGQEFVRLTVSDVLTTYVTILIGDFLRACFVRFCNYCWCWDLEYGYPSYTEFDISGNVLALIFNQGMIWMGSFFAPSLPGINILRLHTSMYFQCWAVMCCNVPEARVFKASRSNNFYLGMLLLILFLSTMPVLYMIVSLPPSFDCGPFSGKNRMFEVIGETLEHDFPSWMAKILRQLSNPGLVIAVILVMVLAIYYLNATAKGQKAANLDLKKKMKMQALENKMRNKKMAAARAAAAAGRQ
UniProt O75838: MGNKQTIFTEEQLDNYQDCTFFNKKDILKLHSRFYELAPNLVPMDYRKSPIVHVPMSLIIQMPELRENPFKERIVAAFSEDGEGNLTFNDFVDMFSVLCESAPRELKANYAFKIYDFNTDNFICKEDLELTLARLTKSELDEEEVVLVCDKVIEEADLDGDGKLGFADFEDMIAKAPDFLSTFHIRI

What was measured:
Experiment in all cases: FRET or BRET; acceptor photobleaching FRET in fixed, co-transfected CHO-K1 cells; GFP/EGFP fusion as donor, V5 fusion stained with anti-V5 and goat anti-mouse Alexa Fluor 555 as acceptor
[1] = molecular target: TMC1-EGFP (EGFP tagged human full length TMC1) (human) (UniProt Q8TDI8)
TMC2-EGFP = molecular target: T1, TMC2-EGFP (UniProt Q8TDI7)
T1 sequence: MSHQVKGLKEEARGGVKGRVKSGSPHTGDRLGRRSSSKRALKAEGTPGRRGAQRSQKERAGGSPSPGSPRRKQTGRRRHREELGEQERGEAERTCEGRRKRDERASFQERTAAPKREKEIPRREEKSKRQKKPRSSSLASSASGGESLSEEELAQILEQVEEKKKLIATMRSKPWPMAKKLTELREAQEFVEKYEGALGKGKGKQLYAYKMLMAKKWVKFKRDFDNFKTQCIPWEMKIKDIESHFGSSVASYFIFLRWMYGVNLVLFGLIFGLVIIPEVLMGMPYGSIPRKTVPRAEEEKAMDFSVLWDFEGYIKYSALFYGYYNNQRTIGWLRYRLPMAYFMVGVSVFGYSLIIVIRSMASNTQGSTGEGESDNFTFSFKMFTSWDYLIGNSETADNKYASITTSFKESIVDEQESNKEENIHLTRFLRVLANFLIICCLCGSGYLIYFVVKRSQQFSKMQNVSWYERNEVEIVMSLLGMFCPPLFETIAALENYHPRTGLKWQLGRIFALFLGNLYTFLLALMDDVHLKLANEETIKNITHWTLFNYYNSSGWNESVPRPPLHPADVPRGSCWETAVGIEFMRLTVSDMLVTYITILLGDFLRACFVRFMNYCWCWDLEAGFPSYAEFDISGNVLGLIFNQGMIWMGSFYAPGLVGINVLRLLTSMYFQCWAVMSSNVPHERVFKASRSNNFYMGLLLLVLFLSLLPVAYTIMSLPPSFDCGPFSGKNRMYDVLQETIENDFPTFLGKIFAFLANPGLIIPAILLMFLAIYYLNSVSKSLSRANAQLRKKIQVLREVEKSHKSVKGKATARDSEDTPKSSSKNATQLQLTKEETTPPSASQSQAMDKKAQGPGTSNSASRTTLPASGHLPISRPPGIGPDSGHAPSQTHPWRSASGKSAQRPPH

TMIE-GFP = molecular target: T2, TMIE-GFP (UniProt Q8NEW7)
T2 sequence: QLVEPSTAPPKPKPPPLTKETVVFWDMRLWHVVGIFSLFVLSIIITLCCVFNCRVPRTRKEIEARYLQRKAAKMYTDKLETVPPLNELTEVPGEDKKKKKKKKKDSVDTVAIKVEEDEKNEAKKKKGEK

LHFPL5-GFP = molecular target: T3, LHFPL5-GFP (UniProt Q8TAF8)
T3 sequence: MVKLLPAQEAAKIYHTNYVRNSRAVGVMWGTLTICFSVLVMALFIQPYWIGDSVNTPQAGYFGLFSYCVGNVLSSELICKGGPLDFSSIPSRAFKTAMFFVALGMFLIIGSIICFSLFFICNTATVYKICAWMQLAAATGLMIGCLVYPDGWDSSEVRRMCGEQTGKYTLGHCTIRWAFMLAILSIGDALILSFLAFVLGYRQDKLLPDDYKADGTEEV

“CIB2-V5 p.R66W (from UniProt O75838 1-187)” was tested, and the binding [1] was “binds”.

For “CIB2-V5 p.I123T (from UniProt O75838 1-187)”, the binding [1] was “binds”.

With “CIB2-V5 p.R186W (from UniProt O75838 1-187)” the binding [1] was “binds”.

With “CIB2-V5 (calcium and integrin-binding protein 2, V5 tagged, wild type) (from UniProt O75838 1-187)” the binding (TMC2-EGFP) was “binds”, the binding [1] was “binds” and the binding (TMIE-GFP) was “no binding”. For the same substance, the binding (LHFPL5-GFP) was “no binding”.
